Assay results from the supplement of paper PMC7826260.
Some of the results follow. Each Rep nickase domain was tested in vitro on the same pool of single strands (1 h at 37 °C, 3 µM enzyme); the outer parts of the 90-letter strands are left off. A value is the log2 ratio of uncut reads to the pool without enzyme; the lower, the more was cut; hits are not called. Because reads are shares of a total, they shift together; where an enzyme cuts many sequences, the uncut ones exceed 0.

Assays:
Assay in all cases: uncleaved DNA left, log2 of reads against the no-enzyme library (log2 ratio); higher = less cleavage (more negative = more Rep cleavage of the k-mer); sequences stand for … in CTCGTCCG…ACCGGAGA
[1] = test system: T1, Rep nickase domain of Muscovy duck circovirus
T1 sequence (Rep 1-111, printed without the tag): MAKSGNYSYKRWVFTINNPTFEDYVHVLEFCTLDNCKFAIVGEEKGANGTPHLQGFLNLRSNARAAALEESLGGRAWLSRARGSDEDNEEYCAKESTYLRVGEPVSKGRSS
Protocol: (§1)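 A pool of 90-nt single-stranded DNAs with seven random bases just before the constant AC of the nick site (name = the seven bases) was cut by 3 µM recombinant His6-SUMO-tagged Rep nickase domain (300 nM DNA, 50 mM HEPES pH 8.0, 50 mM NaCl, 1 mM MnCl2, 1 h, 37 °C, three replicates). Uncut DNA was amplified and sequenced.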

[2] = test system: T2, Rep nickase domain of banana bunchy top virus
T2 sequence (Rep 1-94, printed without the tag): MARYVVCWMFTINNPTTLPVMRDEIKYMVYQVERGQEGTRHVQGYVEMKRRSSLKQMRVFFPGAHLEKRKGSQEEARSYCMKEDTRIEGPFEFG
Protocol: as §1

[3] = test system: T3, Rep nickase domain of cabbage leaf curl virus
T3 sequence (Rep 1-116, printed without the tag): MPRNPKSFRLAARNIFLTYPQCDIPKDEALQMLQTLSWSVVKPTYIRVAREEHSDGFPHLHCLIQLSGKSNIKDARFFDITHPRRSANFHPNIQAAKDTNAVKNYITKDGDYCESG
Protocol: as §1

[4] = test system: T4, Rep nickase domain of chickpea chlorotic dwarf virus
T4 sequence (Rep 1-124, printed without the tag): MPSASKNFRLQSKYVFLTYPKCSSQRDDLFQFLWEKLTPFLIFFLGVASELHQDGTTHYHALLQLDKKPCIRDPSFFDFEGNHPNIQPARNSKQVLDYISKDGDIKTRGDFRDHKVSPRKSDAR
Protocol: as §1

[5] = test system: T5, Rep nickase domain of faba bean necrotic yellows virus
T5 sequence (Rep 1-98, printed without the tag): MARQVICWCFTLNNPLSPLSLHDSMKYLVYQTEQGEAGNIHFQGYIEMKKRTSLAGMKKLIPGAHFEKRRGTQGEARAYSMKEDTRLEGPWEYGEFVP
Protocol: as §1

[6] = test system: T6, Rep nickase domain of maize striate mosaic virus
T6 sequence (Rep 1-117, printed without the tag): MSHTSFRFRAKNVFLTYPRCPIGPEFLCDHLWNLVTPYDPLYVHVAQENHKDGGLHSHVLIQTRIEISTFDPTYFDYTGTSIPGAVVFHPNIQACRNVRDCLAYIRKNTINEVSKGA
Protocol: as §1

[7] = test system: T7, Rep nickase domain of porcine circovirus 2
T7 sequence (Rep 2-116, printed without the tag): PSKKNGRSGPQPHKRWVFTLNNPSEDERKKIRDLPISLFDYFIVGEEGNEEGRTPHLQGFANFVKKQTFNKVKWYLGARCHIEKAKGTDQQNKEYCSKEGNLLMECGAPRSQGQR
Protocol: as §1

[8] = test system: T8, Rep nickase domain of tomato golden mosaic virus
T8 sequence (Rep 1-124, printed without the tag): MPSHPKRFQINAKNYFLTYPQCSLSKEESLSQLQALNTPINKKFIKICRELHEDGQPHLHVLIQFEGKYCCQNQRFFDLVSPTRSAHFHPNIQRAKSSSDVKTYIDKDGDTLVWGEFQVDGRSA
Protocol: as §1

[9] = test system: T9, Rep nickase domain of tomato yellow leaf curl virus
T9 sequence (Rep 1-136, printed without the tag): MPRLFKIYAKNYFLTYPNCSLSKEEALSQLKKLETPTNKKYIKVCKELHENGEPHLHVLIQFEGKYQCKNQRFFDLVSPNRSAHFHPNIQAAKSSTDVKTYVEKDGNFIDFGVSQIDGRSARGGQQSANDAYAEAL
Protocol: as §1

[10] = test system: T10, Rep nickase domain of wheat dwarf virus
T10 sequence (Rep 1-137, printed without the tag): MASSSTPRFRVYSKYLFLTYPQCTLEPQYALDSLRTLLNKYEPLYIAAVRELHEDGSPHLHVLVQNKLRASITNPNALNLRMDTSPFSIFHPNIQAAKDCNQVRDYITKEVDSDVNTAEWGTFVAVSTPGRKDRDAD
Protocol: as §1

Sequence	uncleaved DNA left (log2) [1]	uncleaved DNA left (log2) [2]	uncleaved DNA left (log2) [3]	uncleaved DNA left (log2) [4]	uncleaved DNA left (log2) [5]	uncleaved DNA left (log2) [6]	uncleaved DNA left (log2) [7]	uncleaved DNA left (log2) [8]	uncleaved DNA left (log2) [9]	uncleaved DNA left (log2) [10]
CCCGAGT	-0.0678	-0.23	0.48	0.535	-0.131	-0.176	-0.185	-0.257	-0.13	-0.0946
AGCATGG	0.0272	0.0756	-0.169	0.201	-0.0167	-0.00343	0.119	0.0189	-0.0213	0.158
ACAGCTC	0.0301	0.0231	-0.257	-0.453	0.114	-0.612	0.213	0.145	0.0545	-0.00635
AAAGTAC	0.0291	-0.0697	-0.136	-0.482	0.0704	-0.692	-0.0375	0.0449	-0.0476	0.00478
CGATGTC	0.0146	-0.0878	-0.0835	0.133	-0.176	-0.144	-0.0662	-0.144	-0.0224	-0.0395
ACCCAAA	0.0222	0.129	0.0781	-0.0806	0.0478	-0.745	0.094	0.165	-0.0156	0.0993
CAGCTGG	0.0474	0.0336	0.255	0.922	0.127	0.824	0.222	0.151	-0.105	0.0574
AGATAAC	0.0307	0.0593	-0.368	-1.23	0.11	-0.279	0.111	0.0455	0.0307	-0.0134
CCGATTA	-0.038	-0.0358	-0.0856	-1.08	-0.0102	-0.47	-0.123	0.0473	-0.27	-0.0149
TATGGGT	0.11	-0.0441	0.183	0.949	0.0353	1.35	0.141	0.105	0.0124	0.00169
TCTTTCC	0.00227	-0.0718	0.114	-0.282	-0.104	-0.354	0.022	-0.107	-0.0343	-0.0658
TTCCCAG	-0.0313	-0.119	-0.695	-0.808	-0.0754	-1.06	-0.0839	-0.15	0.0139	0.0126
GGACACG	0.0648	0.146	0.368	1.05	-0.0246	0.611	0.24	-0.00361	0.0153	0.125
CACTGAT	-0.533	-0.653	-0.318	-0.108	-0.18	0.674	-3.46	-0.17	-0.0962	-0.072
GGGAGTT	0.0174	0.138	0.791	1.94	0.0567	2.24	0.178	0.0442	0.0412	0.0339
ATTCACG	-0.0515	-0.144	-0.952	-0.222	0.03	-1.32	0.116	-0.191	-0.167	-0.18
ATGCCAG	-0.00129	-0.0698	-0.845	-0.46	-0.103	-1.24	0.0553	-0.0608	-0.0752	-0.112
TCACCCC	-0.142	-0.118	0.0398	-0.618	-0.158	-0.35	-0.976	-0.282	-0.21	-0.221
GAAGAGC	0.203	0.171	0.105	0.465	0.0759	-0.309	0.234	0.149	0.177	0.0249
AATGTAC	0.0431	0.0573	-0.051	-0.425	0.0997	-0.347	0.0897	0.0388	0.0203	0.0945

Sequence	uncleaved DNA left (log2) [1]	uncleaved DNA left (log2) [2]	uncleaved DNA left (log2) [3]	uncleaved DNA left (log2) [4]	uncleaved DNA left (log2) [5]	uncleaved DNA left (log2) [6]	uncleaved DNA left (log2) [7]	uncleaved DNA left (log2) [8]	uncleaved DNA left (log2) [9]	uncleaved DNA left (log2) [10]
GTGATGG	0.0188	-0.0212	0.237	0.771	0.0442	0.798	-0.0496	0.0213	-0.11	-0.0722
TATGGCA	0.0415	0.0612	-0.152	-0.728	-0.00341	-0.821	-0.0058	0.0401	0.101	0.0368
ACTATAA	-0.0331	0.0193	-0.356	-0.286	-0.029	-0.683	0.000933	-0.0295	-0.154	-0.0987
TGACCAT	-0.0399	-0.0769	0.422	0.633	-0.0208	1.09	-0.125	-0.0885	-0.0235	0.103
TGCGCTT	0.065	0.101	-0.042	-0.384	0.177	-0.000949	0.038	0.106	-0.0248	0.0284
GTCTAAC	-0.0293	0.094	0.243	0.675	-0.145	1.66	0.131	0.0606	-0.072	0.0183
AACCGTT	-0.0802	-0.166	-0.425	-2.22	-0.0587	-0.804	-3	-0.116	-0.124	-0.203
ATAGAAA	0.189	0.189	0.134	0.058	0.119	-0.497	0.227	0.0508	0.125	0.0965
ACGTACG	-0.0994	-0.00413	-0.874	-0.295	-0.00624	-0.936	0.0757	0.043	-0.0073	-0.0813
CCCTGAT	-0.237	-0.135	0.0889	-0.0595	-0.00314	0.27	-1.85	0.0162	-0.181	-0.0981
AGCTTGC	0.0346	-0.0671	-0.644	-0.276	-0.0758	-1.08	0.0861	-0.0233	0.00328	-0.0674
ACTTGAG	-0.0899	-0.0289	-0.548	0.636	0.00647	-0.0302	0.13	-0.0943	0.0824	-0.0895
GCGGATT	-0.102	-0.0332	0.606	1.3	-0.0801	1.89	-0.0312	-0.126	-0.0453	0.0731
GCATCTG	0.0554	0.0148	-0.101	0.446	0.0303	0.327	0.0374	-0.0191	0.0302	0.0547
TACCGCT	0.0467	0.0194	-0.221	0.704	0.0277	0.551	-1.25	-0.0532	-0.0377	-0.0966
CCTTATG	0.0581	-0.101	-0.592	-0.485	0.0559	-1.19	0.159	-0.0624	-0.0894	-0.0619
TTTCCTG	0.0315	-0.115	-0.128	-0.588	-0.0281	-0.184	-0.0899	0.0264	-0.0625	0.0322
TGATGGA	-0.101	-0.0194	0.0281	-0.195	-0.0387	-0.427	-0.0672	0.0147	-0.117	-0.0744
AAGGTTT	-0.106	0.0106	0.126	0.722	-0.0361	1.46	-0.894	0.037	-0.132	-0.0599
AGCGTGC	0.208	0.041	-0.128	0.182	0.0635	-0.361	0.245	0.0987	0.213	0.23

Sequence	uncleaved DNA left (log2) [1]	uncleaved DNA left (log2) [2]	uncleaved DNA left (log2) [3]	uncleaved DNA left (log2) [4]	uncleaved DNA left (log2) [5]	uncleaved DNA left (log2) [6]	uncleaved DNA left (log2) [7]	uncleaved DNA left (log2) [8]	uncleaved DNA left (log2) [9]	uncleaved DNA left (log2) [10]
TCGAGTT	0.145	0.0664	-0.0234	-1.21	-0.00729	0.165	-0.662	0.0867	0.00741	-0.0423
CAGGGTA	0.113	0.107	0.343	0.975	0.0984	1.47	0.154	0.141	-0.0865	0.103
ACAGTTT	-0.154	-0.000194	-0.218	-0.884	-0.00667	-0.232	-0.0289	-0.0043	-0.155	-0.18
GGATGCA	0.0435	-0.0276	0.343	0.911	0.0308	0.779	0.00395	-0.0359	-0.0403	0.11
ACCCGGC	0.00544	-0.0491	-0.268	-0.0758	0.113	-0.762	0.102	0.0131	0.0453	-0.0452
ACTTCTG	-0.0103	0.000239	-0.484	-0.128	0.0453	-0.817	0.218	0.022	-0.0333	-0.0126
CGGCAGG	0.0934	0.196	0.0763	0.668	0.137	0.701	0.2	0.194	0.195	0.199
CCAGTCC	-0.172	-0.211	0.203	-0.196	0.00897	-0.333	-0.0116	-0.0472	-0.141	-0.0716
ACCTCCG	-0.0357	-0.0641	-0.799	0.155	-0.0899	-0.773	0.0663	-0.138	-0.0405	-0.0967
ACTACCT	-0.0348	-0.0494	-0.261	-0.742	-0.0299	0.0128	-0.677	-0.0948	-0.0598	-0.0369
TAGAAGG	0.0379	0.0511	0.383	0.919	0.0455	0.822	0.0559	0.0945	-0.0791	-0.027
GTGAGTT	0.128	0.0296	0.451	0.932	0.135	1.56	0.0964	0.13	0.17	0.125
AGAACGG	0.0228	0.185	0.324	1.01	0.0919	1.44	0.225	0.216	0.0144	0.13
GGGTTAT	-0.0121	0.0854	0.805	1.9	-0.00371	2.23	-0.00894	0.0228	0.0308	0.0594
GATGGAA	0.0878	0.0489	0.508	1.12	-0.00306	1.49	0.146	0.038	0.0224	0.0839
CTATAAA	-0.0786	-0.0847	-0.155	-0.145	-0.0481	-0.726	0.107	0.0981	-0.0991	0.0537
ACCGGTC	0.00693	-0.153	0.0371	0.277	0.0183	-0.443	0.0841	-0.00772	-0.168	-0.0187
GGTACAT	-0.0163	0.0755	0.914	2.14	0.0159	2.33	0.248	0.0544	0.0681	0.238
CAGTTGG	-0.0401	-0.152	-0.647	-0.662	-0.00475	-1.25	-0.222	-0.113	-0.0294	-0.167
GTGAATC	-0.0131	0.102	0.107	0.776	-0.106	1.73	-0.0342	0.0265	-0.043	0.0868
